Assay results reported in a collection of fitness landscapes (doi:10.1126/science.1257360).
This is one part of the list.

B1: PhoQ; a variant is named by its letters at X, in order, P23837 (parent)
chain: MKKLLRLFFPLSLRVRFLLATAAVVLVLSLAYGMVALIGYSVSFDKTTFRLLRGESNLFYTLAKWENNKLHVELPENIDKQSPTMTLIYDENGQLLWAQRDVPWLMKMIQPDWLKSNGFHEIEADVNDTSLLLSGDHSIQQQLQEVREDDDDAEMTHSVAVNVYPATSRMPKLTIVVVDTIPVELKSSYMVWSWFIYVLSANLLLVIPLLWVAAWWSLRPIEALAKEVRELEEHNRELLNPATTRELTSLVRNLNRLLKSERERYDKYRTTLTDLTHSLKTPLXXLQXXLRSLRSEKMSVSDAEPVMLEQISRISQQIGYYLHRASMRGGTLLSRELHPVAPLLDNLTSALNKVYQRKGVNISLDISPEISFVGEQNDFVEVMGNVLDNACKYCLEFVEISARQTDEHLYIVVEDDGPGIPLSKREVIFDRGQRVDTLRPGQGVGLAVAREITEQYEGKIVAGESMLGGARMEVIFGRQHSAPKDE

Variants of: B1
Experiment: enrichment ratio after two sorts for PhoP signalling (ratio (wild type AVST 3.29)); higher = more functional
Conditions: with PhoP (E. coli)

| Variant | enrichment ratio |
| --- | --- |
| AWCI | ≤ 0.25 |
| QILV | ≤ 0.25 |
| KMHG | ≤ 0.25 |
| HDMI | ≤ 0.25 |
| GHVA | ≤ 0.25 |
| IDWS | ≤ 0.25 |
| QVRL | ≤ 0.25 |
| HSFY | ≤ 0.25 |
| KAQW | ≤ 0.25 |
| KQGH | ≤ 0.25 |
| KMYT | ≤ 0.25 |
| FMMA | ≤ 0.25 |
| DRCG | ≤ 0.25 |
| EYVH | ≤ 0.25 |
| DTES | ≤ 0.25 |
| YVKI | ≤ 0.25 |
| AYFK | ≤ 0.25 |
| VNKH | ≤ 0.25 |
| ADMQ | ≤ 0.25 |
| WGKC | ≤ 0.25 |
| YWVC | ≤ 0.25 |
| GWRS | ≤ 0.25 |
| PTPW | ≤ 0.25 |
| MPGY | ≤ 0.25 |

| Variant | enrichment ratio |
| --- | --- |
| FPTP | ≤ 0.25 |
| PMWR | ≤ 0.25 |
| QYVD | ≤ 0.25 |
| TAFS | 1.14 |
| IFWE | ≤ 0.25 |
| HHYP | ≤ 0.25 |
| LPTY | ≤ 0.25 |
| MPII | ≤ 0.25 |
| QGGC | 19.5 |
| KRYM | ≤ 0.25 |
| PNCR | ≤ 0.25 |
| FWSM | ≤ 0.25 |
| TLME | ≤ 0.25 |
| NIFP | ≤ 0.25 |
| GDGC | ≤ 0.25 |
| HDMV | ≤ 0.25 |
| ESII | ≤ 0.25 |
| ELVP | ≤ 0.25 |
| NTGP | ≤ 0.25 |
| YANH | ≤ 0.25 |
| NKFQ | ≤ 0.25 |
| ASSP | ≤ 0.25 |
| AYPW | ≤ 0.25 |
| VCPD | ≤ 0.25 |

| Variant | enrichment ratio |
| --- | --- |
| IKSQ | ≤ 0.25 |
| YMSS | ≤ 0.25 |
| NKIL | ≤ 0.25 |
| GYII | 0.285 |
| EMHN | ≤ 0.25 |
| SDHD | ≤ 0.25 |
| GDMY | ≤ 0.25 |
| AMMH | 0.296 |
| WSAF | 0.647 |
| QMAI | ≤ 0.25 |
| VTIY | ≤ 0.25 |
| HKCY | ≤ 0.25 |
| VDQY | ≤ 0.25 |
| HTKQ | ≤ 0.25 |
| AEFD | ≤ 0.25 |
| VWMC | ≤ 0.25 |
| THIF | ≤ 0.25 |
| ENGV | ≤ 0.25 |
| KNAV | ≤ 0.25 |
| IRQW | ≤ 0.25 |
| DNCQ | ≤ 0.25 |
| WTDY | ≤ 0.25 |
| TIAL | 12.9 |
| DGQP | ≤ 0.25 |

| Variant | enrichment ratio |
| --- | --- |
| AGQF | ≤ 0.25 |
| QRSN | ≤ 0.25 |
| VEYW | ≤ 0.25 |
| TTGF | 17.1 |
| FTDV | ≤ 0.25 |
| MFES | ≤ 0.25 |
| ICPK | ≤ 0.25 |
| GPDV | ≤ 0.25 |
| TMKW | ≤ 0.25 |
| KEVI | ≤ 0.25 |
| IPGT | ≤ 0.25 |
| PVPR | ≤ 0.25 |
| MTEA | ≤ 0.25 |
| LEMM | 11.3 |
| HMVH | ≤ 0.25 |
| PDCF | ≤ 0.25 |
| GAPY | ≤ 0.25 |
| HHRW | ≤ 0.25 |
| MELS | 9.24 |
| SMNW | ≤ 0.25 |
| HDGQ | ≤ 0.25 |
| NPFE | ≤ 0.25 |
| KHFH | ≤ 0.25 |
| LMDI | ≤ 0.25 |

| Variant | enrichment ratio |
| --- | --- |
| EQHL | ≤ 0.25 |
| RGEA | ≤ 0.25 |
| VSWE | ≤ 0.25 |
| NIFS | ≤ 0.25 |
| FAGP | ≤ 0.25 |
| IHMD | ≤ 0.25 |
| MHER | ≤ 0.25 |
| APIF | ≤ 0.25 |
| QLMV | ≤ 0.25 |
| DVAQ | ≤ 0.25 |
| MAPS | ≤ 0.25 |
| EDHT | ≤ 0.25 |
| KDDE | ≤ 0.25 |
| HHSC | ≤ 0.25 |
| FEWP | ≤ 0.25 |
| PKTE | ≤ 0.25 |
| DCGM | ≤ 0.25 |
| DHSI | ≤ 0.25 |
| SCTY | 15.6 |
| HRAE | ≤ 0.25 |
| YATM | ≤ 0.25 |
| GTRV | ≤ 0.25 |
| VGKT | ≤ 0.25 |
| TGSD | ≤ 0.25 |

| Variant | enrichment ratio |
| --- | --- |
| DRED | ≤ 0.25 |
| VDYY | ≤ 0.25 |
| NQMK | ≤ 0.25 |
| GFIA | ≤ 0.25 |
| TKNY | 5.32 |
| KEQW | ≤ 0.25 |
| IHWH | ≤ 0.25 |
| KEQV | ≤ 0.25 |
| VVNF | ≤ 0.25 |
| IDKD | ≤ 0.25 |
| NCAK | ≤ 0.25 |
| PELQ | ≤ 0.25 |
| IRCH | ≤ 0.25 |
| RKHF | ≤ 0.25 |
| PPYK | ≤ 0.25 |
| ITHN | ≤ 0.25 |
| FSPH | ≤ 0.25 |
| KLHC | ≤ 0.25 |
| TPES | ≤ 0.25 |
| IIAE | ≤ 0.25 |
| SGQF | ≤ 0.25 |
| QDNH | ≤ 0.25 |
| SRNI | ≤ 0.25 |
| IYNM | ≤ 0.25 |

| Variant | enrichment ratio |
| --- | --- |
| KINR | ≤ 0.25 |
| YQDL | ≤ 0.25 |
| FGMM | 18.1 |
| NHFV | ≤ 0.25 |
| PWPH | ≤ 0.25 |
| TASP | 0.655 |
| TVMP | ≤ 0.25 |
| EHFR | ≤ 0.25 |
| GCYW | ≤ 0.25 |
| QMMP | ≤ 0.25 |
| HTGE | ≤ 0.25 |
| LWQK | ≤ 0.25 |
| HQER | ≤ 0.25 |
| NRLM | ≤ 0.25 |
| IPDW | ≤ 0.25 |
| MAVR | ≤ 0.25 |
| FAYH | ≤ 0.25 |
| LAKG | ≤ 0.25 |
| KYQR | ≤ 0.25 |
| FIVV | ≤ 0.25 |
| FNVR | ≤ 0.25 |
| VCQC | ≤ 0.25 |
| VACL | 3.6 |
| HCSH | ≤ 0.25 |

| Variant | enrichment ratio |
| --- | --- |
| NSDR | ≤ 0.25 |
| LHFI | ≤ 0.25 |
| DIGA | ≤ 0.25 |
| PAWN | ≤ 0.25 |
| WMYD | ≤ 0.25 |
| ALGC | ≤ 0.25 |
| ILHP | ≤ 0.25 |
| IMKT | ≤ 0.25 |
| WAIG | ≤ 0.25 |
| KTYP | ≤ 0.25 |
| CTTF | ≤ 0.25 |
| GKIA | ≤ 0.25 |
| WWNI | ≤ 0.25 |
| MVMC | ≤ 0.25 |
| NQAL | ≤ 0.25 |
| EAWE | ≤ 0.25 |
| MHDT | ≤ 0.25 |
| KYVF | ≤ 0.25 |
| ASHR | ≤ 0.25 |
| VACY | ≤ 0.25 |
| TMGA | 17.5 |
| KQFD | ≤ 0.25 |
| QFRY | ≤ 0.25 |
| LNPA | ≤ 0.25 |

| Variant | enrichment ratio |
| --- | --- |
| SGMW | ≤ 0.25 |
| INMY | ≤ 0.25 |
| QLPM | ≤ 0.25 |
| STVI | 9.68 |
| IAQK | ≤ 0.25 |
| IRCS | ≤ 0.25 |
| LRCM | ≤ 0.25 |
| PPWD | ≤ 0.25 |
| FQKC | ≤ 0.25 |
| YNYI | ≤ 0.25 |
| FRTG | ≤ 0.25 |
| YEDD | ≤ 0.25 |
| PVPV | ≤ 0.25 |
| IDLY | ≤ 0.25 |
| KLCP | ≤ 0.25 |
| PCIK | ≤ 0.25 |
| KYVK | ≤ 0.25 |
| MRKA | ≤ 0.25 |
| LNCT | ≤ 0.25 |
| HHER | ≤ 0.25 |
| RLIL | ≤ 0.25 |
| YKPI | ≤ 0.25 |
| MYHP | ≤ 0.25 |
| AGVL | 7.73 |

| Variant | enrichment ratio |
| --- | --- |
| KYWI | ≤ 0.25 |
| RLMT | ≤ 0.25 |
| TMSF | 10.3 |
| RSRT | ≤ 0.25 |
| LHFQ | ≤ 0.25 |
| LEMQ | 1.33 |
| WKQG | ≤ 0.25 |
| AQQS | ≤ 0.25 |
| HDRV | ≤ 0.25 |
| YLNG | ≤ 0.25 |
| LMCD | ≤ 0.25 |
| FYTY | ≤ 0.25 |
| GPRG | ≤ 0.25 |
| PYNF | ≤ 0.25 |
| HGNF | ≤ 0.25 |
| IVNI | ≤ 0.25 |
| VLVL | ≤ 0.25 |
| MCTI | 3.03 |
| WFVY | ≤ 0.25 |
| NPGP | ≤ 0.25 |
| TNTL | 14 |
| TRHY | ≤ 0.25 |
| VAMG | 1.95 |
| WHHP | ≤ 0.25 |

| Variant | enrichment ratio |
| --- | --- |
| MGDQ | ≤ 0.25 |
| DWTM | ≤ 0.25 |
| CSHR | ≤ 0.25 |
| FKWK | ≤ 0.25 |
| STMV | 12.8 |
| KCHC | ≤ 0.25 |
| ILFA | ≤ 0.25 |
| QNRW | ≤ 0.25 |
| DEWA | ≤ 0.25 |
| IASR | ≤ 0.25 |
| RTMK | ≤ 0.25 |
| FGQI | ≤ 0.25 |
| IESG | ≤ 0.25 |
| KKNV | ≤ 0.25 |
| RIMA | ≤ 0.25 |
| TTNA | 6.58 |
| PRSI | ≤ 0.25 |
| SCIA | 5.76 |
| WGKV | ≤ 0.25 |
| WTNK | ≤ 0.25 |
| PCQL | ≤ 0.25 |
| TYDF | ≤ 0.25 |
| TDEC | ≤ 0.25 |
| GVMA | ≤ 0.25 |

| Variant | enrichment ratio |
| --- | --- |
| LKMS | ≤ 0.25 |
| TTYH | 2.81 |
| NVHM | ≤ 0.25 |
| TMYC | ≤ 0.25 |
| FEGY | ≤ 0.25 |
| VPCM | ≤ 0.25 |
| FEVC | 3.92 |
| VSLF | 0.403 |
| NVSS | ≤ 0.25 |
| PPMA | ≤ 0.25 |
| WAYY | ≤ 0.25 |
| HQIS | ≤ 0.25 |
| PEAT | ≤ 0.25 |
| CWRL | ≤ 0.25 |
| KAFD | ≤ 0.25 |
| QPNA | ≤ 0.25 |
| SWTP | ≤ 0.25 |
| DVDK | ≤ 0.25 |
| TTDW | ≤ 0.25 |
| YREV | ≤ 0.25 |
| RDTC | ≤ 0.25 |
| SILM | 0.906 |
| GIGR | ≤ 0.25 |
| TPPI | ≤ 0.25 |

| Variant | enrichment ratio |
| --- | --- |
| LLIT | ≤ 0.25 |
| DRDN | ≤ 0.25 |
| RTGA | 0.388 |
| VGHV | ≤ 0.25 |
| YHCI | ≤ 0.25 |
| EHQY | ≤ 0.25 |
| WKYV | ≤ 0.25 |
| EYML | ≤ 0.25 |
| EVPL | ≤ 0.25 |
| FAMW | ≤ 0.25 |
| GRLL | ≤ 0.25 |
| RWTL | ≤ 0.25 |
| LGMQ | ≤ 0.25 |
| DIAC | ≤ 0.25 |
| LENQ | ≤ 0.25 |
| WAHR | ≤ 0.25 |
| QSFN | 1.92 |
| NLMS | ≤ 0.25 |
